# Structures can show the parent of a compound that is named as a salt. Where two headings read alike, the source gives them in different places.
# How the values were obtained:
# human NTCP [1] = molecular target: T1, human NTCP (Homo sapiens, UniProt Q14973); assay: Screening taurocholate uptake assay (96-well, [14C]taurocholate, 10 µM drug); conditions: for remaining activity at 10 µM: 10 min, read-out: %NTCP activity
# T1 sequence (Q14973 1-349): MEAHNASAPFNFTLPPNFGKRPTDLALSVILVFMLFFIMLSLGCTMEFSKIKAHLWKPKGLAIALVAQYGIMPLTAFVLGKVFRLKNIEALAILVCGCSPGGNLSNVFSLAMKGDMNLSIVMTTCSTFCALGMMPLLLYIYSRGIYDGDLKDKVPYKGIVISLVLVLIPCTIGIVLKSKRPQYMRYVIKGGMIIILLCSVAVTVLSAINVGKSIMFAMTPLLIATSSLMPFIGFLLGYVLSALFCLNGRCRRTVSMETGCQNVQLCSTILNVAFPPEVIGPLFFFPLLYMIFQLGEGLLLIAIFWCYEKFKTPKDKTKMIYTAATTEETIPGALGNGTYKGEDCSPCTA
# human NTCP [2] = molecular target: T1, human NTCP; assay: Screening fluorescent competitive Myrcludex B-FITC binding assay (96-well, 10 µM drug)
# [3] = screen, 10 µM drug, [14C]taurocholate uptake
# [4] = screen, 10 µM drug, Myrcludex B-FITC binding
SMILES,remaining activity at 10 µM (human NTCP [1]) [%],"remaining activity at 10 µM (human NTCP [2]; 0.5 h, read-out: %NTCP binding) [%]",other results
CN(C/C=C/C#CC(C)(C)C)Cc1cccc2ccccc12 [Terbinafine],111,57,
CCN1CCCC1CNC(=O)c1cc(S(N)(=O)=O)ccc1OC (stereo not drawn) [Sulpiride],96.3,111,
Nc1nc(N)c2nc(-c3ccccc3)c(N)nc2n1 [Triamterene],138,106,
Nc1ccn([C@@H]2O[C@H](CO)[C@@H](O)C2(F)F)c(=O)n1 [Gemcitabine],94.2,97,
CC1(C)O[C@@H]2C[C@H]3[C@@H]4CCC5=CC(=O)C=C[C@]5(C)[C@H]4[C@@H](O)C[C@]3(C)[C@]2(C(=O)CO)O1 [Desonide],112,58.9,
Nc1ccc(O)c(C(=O)O)c1 [Mesalamine],70.3,121,
CCOC(=O)/C=C(C)/C=C/C=C(C)/C=C/c1c(C)cc(OC)c(C)c1C [Etretinate],126,82.6,
CCN[C@@H](C)Cc1cccc(C(F)(F)F)c1 [Dexfenfluramine hydrochloride],119,,"remaining activity at 10 µM (human NTCP [2]; 0.5 h, read-out: %NTCP binding, screen, 10 µM drug, Myrcludex B-FITC binding): 74.6%"
C[N+](C)(CCOc1ccccc1)Cc1ccccc1.O=C([O-])c1cc2ccccc2cc1O [Bephenium hydroxynaphthoate],,,%NTCP activity (human NTCP [1]; [3]): 101.229%; %NTCP binding (human NTCP [2]; [4]): 85.3911%
COc1cccc(N(C)C(=S)Oc2ccc3c(c2)CCCC3)n1 [Liranaftate],102,,"remaining activity at 10 µM (human NTCP [2]; 0.5 h, read-out: %NTCP binding, Prestwick library screen, 10 µM drug, Myrcludex B-FITC binding): 92.7%"
C=CC[N@@+]12CC[C@@]34c5ccccc5N5/C=C6/[C@H]7C[C@H]8[C@@]9(CC[N@@+]8(CC=C)C/C7=C/CO)c7ccccc7N(/C=C(/[C@@H](C[C@@H]31)/C(=C\CO)C2)[C@H]54)[C@@H]69.[Cl-].[Cl-] [Alcuronium chloride],,,%NTCP activity (human NTCP [1]): 111.061%; %NTCP binding (human NTCP [2]; [4]): 80.4183%
CO[C@H]1C[C@H](O[C@H]2[C@H](C)[C@@H](O[C@@H]3O[C@H](C)C[C@H](N(C)C)[C@H]3OC(C)=O)[C@@H](C)C[C@@]3(CO3)C(=O)[C@H](C)[C@@H](OC(C)=O)[C@@H](C)[C@@H](C)OC(=O)[C@@H]2C)O[C@@H](C)[C@@H]1OC(C)=O [Troleandomycin],73.7,114,
N=C(N)N1CCc2ccccc2C1 [Debrisoquin sulfate],112,70.8,
CC(=O)[C@H]1CC[C@H]2[C@@H]3CC=C4C[C@@H](O)CC[C@]4(C)[C@H]3CC[C@]12C [Pregnenolone],,,%NTCP activity (human NTCP [1]): 24.3643%; %NTCP binding (human NTCP [2]; [4]): 82.2384%
"COCCc1ccc(OCC(O)CNC(C)C)cc1.COCCc1ccc(OCC(O)CNC(C)C)cc1.O=C(O)C(O)C(O)C(=O)O (racemic) [Metoprolol-(+,-) (+)-tartrate salt]",,,%NTCP activity (human NTCP [1]): 70.9682%; %NTCP binding (human NTCP [2]; [4]): 99.6535%
CCN1CCCC1CNC(=O)c1cc(S(=O)(=O)CC)c(N)cc1OC (stereo not drawn) [Amisulpride],102,88,
COc1ccc2cc(CCC(C)=O)ccc2c1 [Nabumetone],49.5,107,
NS(=O)(=O)c1cc2c(cc1Cl)N=C(CSCc1ccccc1)NS2(=O)=O [Benzthiazide],92.9,120,
CC(C(=O)O)c1ccc(-c2ccccc2)c(F)c1 (stereo not drawn) [Flurbiprofen],37.2,129,
C/C=C(/C(=C/C)c1ccc(O)cc1)c1ccc(O)cc1 [Dienestrol],92.5,51.3,
COC(=O)Nc1nc2cc(C(=O)c3ccc(F)cc3)ccc2[nH]1 [Flubendazol],71.4,109,
CCN(CC)CCNC(=O)c1cc(Br)c(N)cc1OC [Bromopride],105,90.4,
CO/N=C(\C(=O)N[C@@H]1C(=O)N2C(C(=O)OC(C)OC(C)=O)=C(COC(N)=O)CS[C@H]12)c1ccco1 (stereo partly drawn) [Cefuroxime axetil],80.5,73,
COc1cnc(NS(=O)(=O)c2ccc(N)cc2)nc1 [Sulfameter],97.5,92.9,
CCN(CC)CCOC(=O)C(c1ccccc1)c1ccccc1 [Adiphenine hydrochloride],115,90.4,
CC(C)NC[C@@H](O)COc1ccc(CC(N)=O)cc1 [(R)-(+)-Atenolol],,,"%NTCP activity (human NTCP [1]): 68.3527%; %NTCP binding (human NTCP [2]; Prestwick library screen, Myrcludex B-FITC binding, 10 µM drug): 79.4949%"

SMILES,remaining activity at 10 µM (human NTCP [1]) [%],"remaining activity at 10 µM (human NTCP [2]; 0.5 h, read-out: %NTCP binding) [%]",other results
CNC(=C[N+](=O)[O-])NCCSCc1csc(CN(C)C)n1 [Nizatidine],68.1,103,
NS(=O)(=O)c1cc2c(cc1C(F)(F)F)NCNS2(=O)=O [Hydroflumethiazide],154,105,
CC(=O)Nc1ccc(CC(=O)O)cc1 [Actarit],94.2,90.9,
OCCN1CCN(CCCN2c3ccccc3C=Cc3ccccc32)CC1 [Opipramol dihydrochloride],77.6,86.2,
CC[N+](CC)(CC)CCOc1cccc(OCC[N+](CC)(CC)CC)c1OCC[N+](CC)(CC)CC [Gallamine triethiodide],104,70.1,
NC[C@@H]1O[C@H](O[C@H]2[C@@H](O)[C@H](O[C@@H]3[C@@H](O)[C@H](N)C[C@H](N)[C@H]3O[C@H]3O[C@H](CN)[C@@H](O)[C@H](O)[C@H]3N)O[C@@H]2CO)[C@H](N)[C@@H](O)[C@@H]1O.O=S(=O)(O)O [Neomycin sulfate],,,"%NTCP activity (human NTCP [1]; Prestwick library screen, 10 µM drug, [14C]taurocholate uptake): 107.88%; %NTCP binding (human NTCP [2]; Prestwick library screen, 10 µM drug, Myrcludex B-FITC binding): 84.9905%"
C[C@]12C[C@H](O)[C@H]3[C@@H](CCC4=CC(=O)CC[C@@]43C)[C@@H]1CC[C@@H]2C(=O)CO [Corticosterone],65.1,46.2,
CCNCC(O)c1cccc(O)c1 (stereo not drawn) [Etilefrine hydrochloride],69.7,89.9,
C[C@@H]1CC[C@H]2[C@@H](C)C(=O)O[C@@H]3O[C@@]4(C)CC[C@@H]1[C@]32OO4 [Artemisinin],61.4,74.9,
CC(C)(C#N)c1cc(Cn2cncn2)cc(C(C)(C)C#N)c1 [Anastrozole],91.7,88.7,
C(#CCN1CCCC1)CN1CCCC1.Cl.Cl [Tremorine dihydrochloride],,,%NTCP activity (human NTCP [1]): 101.872%; %NTCP binding (human NTCP [2]; [4]): 85.5389%
CC(C(=O)O)c1ccc(C(=O)c2ccccc2)s1 (stereo not drawn) [Tiaprofenic acid],20.9,84.5,
NC(=O)N1c2ccccc2C=Cc2ccccc21 [Carbamazepine],144,104,
CN(N=O)C(=O)N[C@H]1C(O)O[C@H](CO)[C@@H](O)[C@@H]1O (mixture of isomers) [Streptozotocin],,,%NTCP activity (human NTCP [1]; [3]): 69.3712%; %NTCP binding (human NTCP [2]; [4]): 117.89%
C=CC1=C(C(=O)O)N2C(=O)[C@@H](NC(=O)/C(=N\O)c3csc(N)n3)[C@H]2SC1 [Cefdinir],92,114,
CC1(C)O[C@@H]2C[C@H]3[C@@H]4C[C@H](F)C5=CC(=O)C=C[C@]5(C)[C@@]4(F)[C@@H](O)C[C@]3(C)[C@]2(C(=O)CO)O1 [Fluocinolone acetonide],48.4,81.2,
O=C(CCCCC(=O)Nc1c(I)cc(I)c(C(=O)O)c1I)Nc1c(I)cc(I)c(C(=O)O)c1I [Iodipamide],74,83.8,
O=C([O-])CCNC(=O)c1ccc(/N=N/c2ccc(O)c(C(=O)[O-])c2)cc1.[Na+].[Na+] [Balsalazide Sodium],,,%NTCP activity (human NTCP [1]; [3]): 79.5523%; %NTCP binding (human NTCP [2]; [4]): 86.6059%
COC(=O)CCc1ccc(OCC(O)CNC(C)C)cc1 (stereo not drawn) [Esmolol hydrochloride],75.4,97.4,
CSc1ccc2c(c1)C(N1CCN(C)CC1)Cc1ccccc1S2.O=C(O)/C=C\C(=O)O (stereo not drawn) [Methiothepin maleate],,,%NTCP activity (human NTCP [1]; [3]): 130.345%; %NTCP binding (human NTCP [2]; [4]): 57.715%
NCCc1cc[nH]n1 [Betazole hydrochloride],161,115,
CN(C)[C@@H]1C(O)=C(C(=O)NCNCCCC[C@H](N)C(=O)O)C(=O)[C@@]2(O)C(O)=C3C(=O)c4c(O)cccc4[C@@](C)(O)[C@H]3C[C@@H]12 [Lymecycline],70.8,83.5,
COc1cccc2c1C(=O)c1c(O)c3c(c(O)c1C2=O)C[C@@](O)(C(=O)CO)C[C@@H]3O[C@H]1C[C@H](N)[C@H](O)[C@H](C)O1 [Doxorubicin hydrochloride],55.8,67.7,
Nc1[nH]c(=O)ncc1F [Flucytosine],47.6,97.2,
N[C@@H](C(=O)N[C@@H]1C(=O)N2C(C(=O)O)=C(Cl)CS[C@H]12)c1ccccc1.O [Cefaclor hydrate],,,%NTCP activity (human NTCP [1]; [3]): 50.6241%; %NTCP binding (human NTCP [2]; [4]): 77.3075%

# Reference: article PMC5681660, “Reduced hepatitis B and D viral entry using clinically applied drugs as novel inhibitors of the bile acid transporter NTCP” (Scientific Reports, 2017)
